# Source: PubChem BioAssay AID504332 (National Center for Advancing Translational Sciences (NCATS), 2011)
# Several values for one entry are separate records, joined by “and”; a condition that tells them apart may be missing. Identical values can stand only once. In all, about 350,000 compounds went through this assay and about 31,000 (8.9%) were called active. Inconclusive means that the source gave no clear call. Such entries were picked first, then a sample of the others. The call rests on the fitted dose curve; in most records, active means well fitted inhibition curve with a large enough effect; inconclusive means small, poorly fitted or top-dose-only effect; inactive means no such curve, though single readings can be large or run the other way. Where the call is inconclusive, the potency comes from a doubtful curve fit. Where a structure was tested more than once in an assay, its records may differ in their call.
# Target: Histone-lysine N-methyltransferase EHMT2 (Homo sapiens) (UniProt Q96KQ7)
# Sequence of UniProt Q96KQ7 (Q96KQ7 whole entry, looked up): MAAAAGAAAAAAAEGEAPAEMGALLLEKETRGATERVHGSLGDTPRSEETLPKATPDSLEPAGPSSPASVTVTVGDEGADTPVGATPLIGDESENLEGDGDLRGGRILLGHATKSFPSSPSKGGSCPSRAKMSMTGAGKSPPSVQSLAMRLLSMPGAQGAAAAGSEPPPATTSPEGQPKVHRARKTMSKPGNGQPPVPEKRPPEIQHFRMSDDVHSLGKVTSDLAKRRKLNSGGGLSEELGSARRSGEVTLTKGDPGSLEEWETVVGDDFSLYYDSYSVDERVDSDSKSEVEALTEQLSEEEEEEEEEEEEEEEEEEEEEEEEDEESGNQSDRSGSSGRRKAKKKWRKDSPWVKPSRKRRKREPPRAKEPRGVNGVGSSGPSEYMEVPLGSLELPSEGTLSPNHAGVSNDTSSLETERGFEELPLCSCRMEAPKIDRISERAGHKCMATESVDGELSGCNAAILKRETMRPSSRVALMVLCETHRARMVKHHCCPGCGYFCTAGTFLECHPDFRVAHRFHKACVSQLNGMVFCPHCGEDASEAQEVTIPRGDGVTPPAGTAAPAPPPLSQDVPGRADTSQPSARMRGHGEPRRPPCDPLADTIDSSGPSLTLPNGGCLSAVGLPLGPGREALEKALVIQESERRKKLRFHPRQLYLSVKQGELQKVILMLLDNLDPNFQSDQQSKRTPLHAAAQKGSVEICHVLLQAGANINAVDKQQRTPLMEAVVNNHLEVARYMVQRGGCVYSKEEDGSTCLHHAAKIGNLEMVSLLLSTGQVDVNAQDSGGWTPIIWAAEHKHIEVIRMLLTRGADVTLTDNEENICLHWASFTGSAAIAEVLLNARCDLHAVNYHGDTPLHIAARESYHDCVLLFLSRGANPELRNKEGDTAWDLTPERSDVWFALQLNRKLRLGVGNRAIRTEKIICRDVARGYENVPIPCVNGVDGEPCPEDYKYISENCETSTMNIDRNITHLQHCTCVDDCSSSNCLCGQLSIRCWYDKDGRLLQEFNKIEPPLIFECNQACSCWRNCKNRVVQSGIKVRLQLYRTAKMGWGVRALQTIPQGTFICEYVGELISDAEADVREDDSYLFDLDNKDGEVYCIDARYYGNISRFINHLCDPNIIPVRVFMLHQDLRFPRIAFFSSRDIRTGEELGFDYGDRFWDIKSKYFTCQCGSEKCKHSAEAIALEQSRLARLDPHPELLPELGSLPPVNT
# Assay: qHTS Assay for Inhibitors of Histone Lysine Methyltransferase G9a; further: nearly all actives have a fitted effect of over 75% in size
# Conditions: G9a H3K9 monomethylation, AlphaScreen, 2 h; activity, negative = inhibition: at 59 µM (top of the series) unless noted
# How it was run: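 Enzyme 20 nM + cpd, 15 min RT; add b-H3K9 pep 500 nM / SAM 20 uM; 2 h RT; anti-H3K9me1 Ab 0.5 ug/mL + SA donor / anti-rabbit acceptor beads 20 ug/mL each, 10 min; AlphaScreen read.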
# On the % scale 0 is the no-effect control and ±100 the full control effect; potency means the concentration at half of the fitted maximal effect; tags describe the fitted curve by direction and shape.
SMILES,"activity, negative = inhibition",Potency
COC(=O)C1=C(c2ccc(F)cc2F)C[C@@H]2CC[C@H]1N2C(=O)NC1Cc2ccccc2C1,inactive: 7.82% [at 0.501 µM],
COc1ccc(NC(=O)c2cccn(Cc3ccc(Cl)cc3)c2=O)c(OC)c1,inactive: 3.63%,
Cc1cc(C)c(C(=O)CN2CCOCC2)c(C)c1,,active: 3.16 µM
Cc1nc2ccccn2c1P(=S)(N1CCCCC1)N1CCCCC1,,"inconclusive: 89.1 µM [inhibitor, partial curve, poor fit]"
NCC[C@H](O)C(=O)N[C@H]1C[C@@H](N)[C@@H](O[C@H]2O[C@@H](CN)[C@@H](O)[C@@H](O)[C@@H]2N)[C@@H](O[C@H]2O[C@@H](CO)[C@@H](O)[C@@H]2O)[C@@H]1O,inactive: 2.91% [at 5.15 µM],
Cc1ccc(CN2CCSc3ccc(C(=O)N4CCC5(CC4)OCCO5)cc32)cc1,,active: 50.1 µM
CC(Cc1ccccc1)NC(=O)CN1CCCC1=O (stereo not given),,"inconclusive: 89.1 µM [inhibitor, partial curve, poor fit]"
CCN1CCN(C(=O)COc2ccc(S(=O)(=O)NC(C)C)cc2)CC1,,"inconclusive: 31.6 µM [inhibitor, partial curve, poor fit]"
COc1ccccc1CC1/C(=N/O)C2CCN1CC2 (stereo not given),inactive: -3.79%,
COc1ccc(C(C)=O)cc1CC(C(=O)c1ccc(F)cc1)N(C)C (stereo not given),inactive: 1.83%,
O=C1Nc2ccccc2/C1=C/c1cnc[nH]1,inactive: 44%,
COC(=O)c1ccccc1NC(=O)N1C[C@@H]2C[C@@H](C1)c1cccc(=O)n1C2,,"inconclusive: 100 µM [inhibitor, single point]"
CCCn1c(=O)c2[nH]c(C3CCCC3)nc2n(CCCOC(=O)c2ccc(S(=O)(=O)F)cc2)c1=O,,inactive
CCOc1ccccc1N=C1SCCCN1C,,active: 5.01 µM
CCOC(=O)[C@@]12C(=O)C(=O)N[C@]1(c1ccccc1)C1OCCCC12 (stereo not given in full),inactive: 2.89% [at 102 µM],
CCOc1ccc(CN2CCN(C(=O)Cc3ccccc3)CC2)cc1,,active: 7.08 µM
C=CCN1CC[C@]23c4c5ccc(O)c4O[C@@H]2/C(=N/N=C2\CC[C@@]4(O)C6Cc7ccc(O)c8c7[C@@]4(CCN6CC=C)[C@@H]2O8)CC[C@@]3(O)C1C5,,active: 12.6 µM
CN1CCN(Cc2ccc(N)cc2)CC1,inactive: 23.6% [at 0.501 µM],
N#CC12CNCC1CN=N2 (stereo not given),,"inconclusive: 89.1 µM [inhibitor, partial curve, poor fit]"
NC(=O)c1c(NC(=O)c2ccc(S(=O)(=O)N(CCCl)CCCl)cc2)sc2c1CCCCC2,inactive: 23%,
Cc1ccc(-n2c(C)cc(/C=C3\C(=O)NC(=O)N(C)C3=O)c2C)cc1C,,"inconclusive: 25.1 µM [inhibitor, single point]"
CC(C)CN1CCC2(CC1)CCN(S(C)(=O)=O)CC2,inactive: 6.81% [at 12.7 µM],
O=C(Nc1ccccc1C(F)(F)F)c1cccn(Cc2ccccc2)c1=O,inactive: 6.7%,

SMILES,"activity, negative = inhibition",Potency
COC(=O)C1=C(c2ccc3ccccc3c2)C[C@@H]2CC[C@H]1N2C(=O)NCc1ccc(F)cc1,inactive: 7.71% [at 2.33 µM],
O=P(NS(=O)(=O)c1ccc(Cl)cc1)(Oc1ccccc1)Oc1ccccc1,,"inconclusive: 25.1 µM [inhibitor, single point]"
C=CC1CN2CCC1CC2[C@@H](OC(=O)c1ccc(OC)cc1)c1ccnc2ccccc12 (stereo not given in full),,"inconclusive: 35.5 µM [inhibitor, single point]"
COc1ccc(C2N(c3cc(C)on3)C(=O)C3CCCN32)cc1 (stereo not given),,active: 35.5 µM
Cc1ncsc1CCCl,,inactive and active: 23.8 µM
CC(=O)OC1CC[C@]2(C)C(CCC3C2CC[C@]2(C)C(C4=CC(=O)OC4)C(OC(C)=O)CC32O)C1 (stereo not given in full),inactive: -0.909% [at 2.33 µM],
CC(=O)c1cccc(OCC(O)CN2CC=C(c3ccccc3)CC2)c1 (stereo not given),,"inconclusive: 28.2 µM [inhibitor, single point]"
Cc1ccccc1-n1c(O)c(C=Nc2ccc(N(C)C)cc2)c(=O)[nH]c1=O,inconclusive: -99.4% [inhibitor],
NCCc1c[nH]c2ccc(F)cc12,,"inconclusive: 20 µM [inhibitor, single point]"
COc1ccc(C(=O)NC(=S)NNC(=O)c2cccnc2)cc1,,"inconclusive: 39.8 µM [inhibitor, single point]"
COCCOC(=O)C1=C(N)Oc2c(c(=O)oc3ccccc23)C1c1ccncc1 (stereo not given),,"inconclusive: 10 µM [inhibitor, partial curve, poor fit]"
Cc1ccccc1-n1c(/C=C/c2ccccc2F)nc2ccccc2c1=O,inactive: -3.52%,
N#CC(C#N)=Cc1cc(O)c(O)c([N+](=O)[O-])c1,,active: 14.1 µM and active: 15.8 µM
COCCNC(=O)c1c(NC(=O)c2ccco2)n(Cc2ccccc2)c2nc3ccccc3nc12,,"inconclusive: 3.55 µM [inhibitor, partial curve, poor fit]"
COc1ccc(N2C(=O)NC(=O)/C(=C\c3cn(CC(=O)N4CCOCC4)c4ccccc34)C2=O)c(OC)c1,,"inconclusive: 70.8 µM [inhibitor, single point]"
C[n+]1ccc(-c2ccncc2)cc1,,active: 15.8 µM
COC[C@H]([C@@H](O)[C@@H](O)C(=O)NCC[C@@H](C)c1nc(/C=C/C[C@H]2OC3(C[C@H](O)[C@H]2C)OC([C@@H](C[C@@H](O)[C@@H](C)[C@@H](O)[C@@H](C)/C=C(C)/C(C)=C/C=C/C(C)=C\C#N)OC)[C@@H](OP(=O)(O)O)C3(C)C)co1)N(C)C (stereo not given in full),inactive: 27.1%,
CCCCn1c(=O)c(C=Nc2cc([N+](=O)[O-])ccc2OC)c(O)n(CCCCl)c1=O,,"inconclusive: 28.2 µM [inhibitor, single point]"
CCOP(=O)(Cc1ccc(C(=O)CC)o1)OCC,inactive: -1.61% [at 102 µM],
CCc1n[nH]c(=S)n1/N=C/c1c(C)nn(-c2ccccc2)c1Cl,,active: 1.78 µM
CCCCN1C(=O)NC(=O)C2(Cc3c(nc4c(C)cccn4c3=O)N3CCc4ccccc4C32)C1=O (stereo not given),inconclusive: -63.5% [inhibitor],
Cc1cc(/C=C2\C(=O)NC(=O)N(Cc3ccco3)C2=O)c(C)n1-c1ccc(C(=O)O)cc1,,active: 50.1 µM
Cc1ccc(N/N=C/c2c(O)n(-c3ccccc3)c(=O)[nH]c2=O)cc1,,active: 3.16 µM

SMILES,"activity, negative = inhibition",Potency
O=c1c2ccccc2nc(CN2CCOCC2)n1-c1ccccc1F,,"inconclusive: 12.6 µM [inhibitor, single point]"
CCN(CC)c1ccc(/C=C2/C(=O)NC(=O)N(Cc3ccco3)C2=O)cc1,,"inconclusive: 39.8 µM [inhibitor, single point]"
COc1ccc(CCCc2nnc(SCC(=O)Nc3ccc(C)c(C)c3)o2)cc1,,active: 22.4 µM
Cc1cc(C(C#N)c2ccc(Cl)cc2)c(Cl)cc1NC(=O)c1cc(I)cc(I)c1O (stereo not given),,active: 14.1 µM
CC(=O)c1ccc(NC(=O)c2sc3nc4c(cc3c2N)N2CCC4CC2)cc1,,"inconclusive: 39.8 µM [inhibitor, single point]"
O=C(O)c1nn(Cc2ccc(Cl)cc2Cl)c2ccccc12,inactive: -20.8% [at 12.7 µM] and inactive: 32% [at 12.7 µM],active: 31.6 µM and active: 2.24 µM
CCn1nc(-c2ccccc2)nc2c(=O)n(C)c(=O)nc1-2,,"inconclusive: 25.1 µM [inhibitor, single point]"
CCCCn1c(C)c(C(=O)O)c2cc(OC)c3ccccc3c21,,"inconclusive: 7.94 µM [inhibitor, partial curve, poor fit]"
CCOC(=O)C1(CCc2ccccc2)CCN(Cc2cccc3cnccc23)CC1,,"inconclusive: 4.47 µM [inhibitor, partial curve, poor fit]"
Cc1ccc(CN2CCN(CC(=O)N3CCC4(CC3)OCCO4)C2=O)cc1,,"inconclusive: 89.1 µM [inhibitor, single point]"
NC(=O)c1ccc(NC(=O)c2cccn(Cc3ccccc3)c2=O)cc1,inactive: -32.3%,
Cc1ccccc1-c1nc(CS(=O)CC(=O)N2CCC3(CC2)OCCO3)c(C)o1 (stereo not given),,"inconclusive: 3.55 µM [inhibitor, partial curve, poor fit]"
Cc1ccc(-n2c(/C=C/c3cccc(C(F)(F)F)c3)nc3ccccc3c2=O)cc1,inactive: -5.19%,
CCC(CC)NC1CCCCC1OC (stereo not given),,"inconclusive: 14.1 µM [inhibitor, single point]"
CCN(CC)C(=O)c1ccc(NC(=O)c2cc(S(=O)(=O)N3CCCCCC3)ccc2OC)cc1,inactive: -8.24% [at 102 µM],
Cc1c(C(c2ccc(O)cc2)c2c(O)c3ccccc3oc2=O)c(=O)n(-c2ccccc2)n1C (stereo not given),inactive: -19.6%,
CC1=NN(c2ccccc2)C(=O)C1/C=C1\C(=O)NC(=O)N(c2ccc(C)c(C)c2)C1=O (stereo not given),,active: 44.7 µM
COc1ccc(-n2c(-c3ccccc3)nc3ccccc3c2=O)cc1,inactive: -4.54% [at 102 µM],
CCCCn1c(O)c(C(C)=Nc2c(C)n(C)n(-c3ccccc3)c2=O)c(=O)[nH]c1=O,inactive: -3.1% [at 102 µM],
Cc1ccccc1-n1c(O)c(C(c2ccncc2)c2c(O)n(-c3ccccc3C)c(=O)[nH]c2=O)c(=O)[nH]c1=O,,active: 25.1 µM
C/C(=C/C=C/[C@@H](C)C(=O)O)[C@H]1CN[C@H](C(=O)O)[C@H]1CC(=O)O,,"inconclusive: 79.4 µM [inhibitor, single point]"
CN1/C(=C\C=Nc2ccccc2)C(C)(C)c2ccccc21,,active: 79.4 µM
CC[C@@H](CO)NC(=O)[C@@H]1C=C2c3cccc4[nH]cc(c34)C[C@H]2N(C)C1,,active: 14.1 µM
